Reference: PubChem BioAssay AID504832 (National Center for Advancing Translational Sciences (NCATS), 2011)
Hit rate of the full screen: of about 310,000 compounds, about 18,000 (5.8%) were called active. The inconclusive results got no clear call from the source; some entries with a clear call stand among them for comparison. Calls come from the whole dose curve; as a rule, active = well fitted inhibition curve with a large enough effect; inconclusive = small, poorly fitted or top-dose-only effect, or another doubt; inactive = no such curve, though single readings can be large or run the other way. No potency is given beside an inconclusive call; the fits are too rough.

Assay: Primary qHTS for delayed death inhibitors of the malarial parasite plastid, 48 hour incubation
Details: P. falciparum luciferase growth in erythrocytes; series mostly up to 28.7 µM; activity change, negative = inhibition: at the top concentration
Outline: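 Luminescence readout; reporter = integrated firefly luciferase in P. falciparum. RBC culture at 2% hematocrit, 0.1% parasitemia final, 37 C/5% CO2; decreased signal taken as growth inhibition.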
% is set by controls: 0 for no effect and ±100 for the full control effect; potency is the fitted concentration of half-maximal effect; tags give direction and shape of the fitted curve.

Question: Which “activity change, negative = inhibition” value does the source give for `O=C(COC(=O)c1c(Cl)ccc(Cl)c1Cl)NC(=O)NCc1ccccc1` here?
Answer: inactive: 2.24%

Question: Which Potency does the source give for `N#Cc1ccc(S(=O)(=O)N2CCN(c3ncccn3)CC2)cc1` here?
Answer: inconclusive [inhibitor, full curve, poor fit]

Question: Which Potency does the source give for `COc1ccc(S(=O)(=O)N2CN(CCc3ccc(OC)c(OC)c3)c3nc4ccccc4nc32)cc1` here?
Answer: inconclusive [inhibitor, partial curve]

Question: Which Potency does the source give for `O=C(Nc1ccc2nc(-c3cccs3)c(-c3cccs3)nc2c1)N1CCOCC1` here?
Answer: inconclusive [inhibitor, full curve]

Question: With `Nc1cccc2[nH]c(C(F)(F)F)nc12` as the molecule, how does the “activity change, negative = inhibition” value read?
Answer: inactive: 3.33%

Question: For `COC(=O)c1ccc(NC(=O)C[n+]2ccccc2C)cc1`, which “activity change, negative = inhibition” value is on record?
Answer: inactive: -29.2%

Question: Which Potency does the source give for `CCCn1c(SCC(=O)Nc2ccccc2Cl)nc(O)cc1=O` here?
Answer: inconclusive [inhibitor, single point]

Question: With `COC(=O)C1=C(C)NC(C)=C(C(=O)OC)C1c1cn(-c2ccccc2)nc1-c1ccco1` as the molecule, how does the Potency read?
Answer: inconclusive [inhibitor, single point]

Question: Which Potency does the source give for `CC(C)CN(C(=O)c1cc(Cl)nc2ccccc12)C1CCS(=O)(=O)C1` (stereo not drawn) here?
Answer: inconclusive [inhibitor, single point]

Question: For `CC[C@@]12C(=O)N(c3cccc(F)c3)C(=O)N1[C@H](c1cccc(C)c1)[C@@H]1C(=O)N(Cc3ccccc3)C(=O)[C@@H]12`, which Potency is on record?
Answer: inconclusive [inhibitor, single point]

Question: For `COc1ccc(OC)c(C(=O)CC2OC(=O)c3ccccc32)c1` (stereo not drawn), which Potency is on record?
Answer: inconclusive [inhibitor, single point]

Question: With `COc1ccc(/C=N/NC(=O)c2cccc([N+](=O)[O-])c2)cc1OC(=O)c1ccccc1` as the molecule, how does the “activity change, negative = inhibition” value read?
Answer: inactive: -4.6%

Question: With `CCOC(=O)c1c(NC(=O)CSc2nnc3c(n2)[nH]c2ccc(F)cc23)sc(C(C)=O)c1C` as the molecule, how does the Potency read?
Answer: inconclusive [inhibitor, partial curve, poor fit]

Question: For `COc1ccc(/C=C/C(=O)OCC(=O)N2CC(=O)Nc3ccccc32)cc1S(=O)(=O)N1CCOCC1`, which Potency is on record?
Answer: inconclusive [inhibitor, partial curve]

Question: For `COc1cccc(NC(=O)COc2coc(CN3CCN(c4ccccc4)CC3)cc2=O)c1`, which “activity change, negative = inhibition” value is on record?
Answer: inactive: 12.9%

Question: For `Cc1cccc(NC(=O)CC23CC4CC(C2)CC(n2nnc(C)n2)(C4)C3)c1`, which Potency is on record?
Answer: inconclusive [inhibitor, partial curve, poor fit]

Question: Which “activity change, negative = inhibition” value does the source give for `COc1ccc(C)cc1-n1nnnc1SCc1nc2ccccc2s1` here?
Answer: inactive: 55.9%

Question: Which Potency does the source give for `COc1ccc(NC(=O)COc2cc(C)cc(C)c2)cc1S(=O)(=O)N1CCCCC1` here?
Answer: inconclusive [inhibitor, partial curve]

Question: For `CC(C)CCN1CCN(Cc2ccc(C(F)(F)F)cc2)CC1CCO` (stereo not drawn), which Potency is on record?
Answer: inconclusive [inhibitor, single point]

Question: For `CCN(CCNC(=O)C1CCN(Cc2nc(-c3ccc(Cl)cc3)oc2C)CC1)c1ccccc1`, which Potency is on record?
Answer: inconclusive [inhibitor, partial curve]

Question: For `CC(=O)c1ccc(N2CCN(C(=O)c3ccc(Cl)c(S(=O)(=O)NC4CC4)c3)CC2)c(F)c1`, which Potency is on record?
Answer: inconclusive [inhibitor, single point]

Question: For `Cc1ccc2[nH]c3c(c2c1)CCCC3NC(=O)CCl` (stereo not drawn), which Potency is on record?
Answer: active: 2.33 µM

Question: Which Potency does the source give for `COc1ccc(C)cc1NC(=O)CN1c2cccc3cccc(c23)S1(=O)=O` here?
Answer: inconclusive [inhibitor, single point]

Question: Which Potency does the source give for `Cn1c2ccccc2c2ncn(Cc3ccc(F)cc3)c(=O)c21` here?
Answer: inconclusive [inhibitor, full curve, poor fit]

Question: Which Potency does the source give for `CC(=O)Nc1ccc(Nc2nc3ccccc3nc2NS(=O)(=O)c2ccccc2)cc1` here?
Answer: inconclusive [inhibitor, single point]

Question: For `Cc1ccc(O)c(CNc2nc3ccccc3[nH]2)c1`, which Potency is on record?
Answer: inconclusive [inhibitor, partial curve, poor fit]

Question: With `O=C(c1ccc(Oc2ccccc2)cc1)C1CCCN(C(=O)c2cnccn2)C1` (stereo not drawn) as the molecule, how does the “activity change, negative = inhibition” value read?
Answer: inactive: -9.45%

Question: With `CCCCCCCNC(=O)C1(CC2CC(c3ccc(Cl)cc3)=NO2)CCN(C(=O)C2(C)CC2)CC1` (stereo not drawn) as the molecule, how does the Potency read?
Answer: inconclusive [inhibitor, single point]

Question: For `CC(OC(=O)C12CCC(=O)N1c1ccccc1S2)C(=O)Nc1cccc(Cl)c1` (stereo not drawn), which Potency is on record?
Answer: inconclusive [inhibitor, single point]

Question: Which Potency does the source give for `CC(C)c1ccc2oc(=O)cc(CN3CCN(Cc4ccccc4)CC3)c2c1` here?
Answer: inconclusive [inhibitor, partial curve]

Question: With `COc1ccc(/C=N\N=C2/SC(CC(=O)O)C(=O)N2c2ccc(O)cc2)cc1` (stereo not drawn) as the molecule, how does the “activity change, negative = inhibition” value read?
Answer: inactive: 1.93%

Question: Which Potency does the source give for `Cc1ccc(S(=O)(=O)Oc2ccc(C3C4=C(CCCC4=O)N(CCC(=O)O)C4=C3C(=O)CCC4)cc2Cl)cc1` here?
Answer: active: 3.29 µM

Question: Which Potency does the source give for `COc1ccc(NC(=S)NC(NC(=O)C(C)C)C(Cl)(Cl)Cl)c([N+](=O)[O-])c1` (stereo not drawn) here?
Answer: active: 2.62 µM

Question: With `Cc1ccc(CN2CCN(Cc3cnc(C)[nH]3)CC2CCO)cc1` (stereo not drawn) as the molecule, how does the “activity change, negative = inhibition” value read?
Answer: inactive: -7.21%

Question: Which Potency does the source give for `O=C(NCCOc1ccccc1)C1CCC(=O)N(C2CCCCCC2)C1` (stereo not drawn) here?
Answer: inconclusive [inhibitor, full curve, poor fit]

Question: For `Cn1cnc2c1c(=O)n(Cc1c(Cl)cccc1Cl)c(=O)n2C`, which Potency is on record?
Answer: inconclusive [inhibitor, partial curve, poor fit]

Question: Which Potency does the source give for `O=C(c1ccc2c3c(cccc13)CC2)C1CCCN(Cc2ncc[nH]2)C1` (stereo not drawn) here?
Answer: inconclusive [inhibitor, partial curve]

Question: With `CCOc1ccccc1-c1nnc(CS(=O)(=O)c2ccccc2)o1` as the molecule, how does the Potency read?
Answer: inconclusive [inhibitor, partial curve, poor fit]

Question: With `Cc1cc(C(=O)N2CCN(c3ccc([N+](=O)[O-])cc3)CC2)co1` as the molecule, how does the Potency read?
Answer: inconclusive [inhibitor, single point]

Question: With `COc1cc(C(=O)NCC2(N(C)C)CCCCC2)ccc1OCc1ccccc1` as the molecule, how does the Potency read?
Answer: inconclusive [inhibitor, single point]

Question: Which Potency does the source give for `Cn1c(=O)c(C(=O)CN2CCCCCC2)c(N)n(Cc2ccccc2)c1=O` here?
Answer: inconclusive [inhibitor, single point]

Question: For `COC(=O)c1ccc(NC(=S)N(Cc2cccnc2)Cc2ccco2)cc1`, which Potency is on record?
Answer: inconclusive [inhibitor, partial curve, poor fit]

Question: For `C=C(C(=O)c1ccccc1)C(C(=C)C(=O)c1ccccc1)c1ccc(OC)cc1`, which Potency is on record?
Answer: active: 2.08 µM

Question: With `O=C(Nc1cccc(C(F)(F)F)c1)c1cc2c(s1)-c1ccccc1OC2` as the molecule, how does the Potency read?
Answer: inconclusive [inhibitor, single point]

Question: With `Cc1ccc(NC(=O)Nc2cccc(Cl)c2)c(C(=O)O)c1` as the molecule, how does the “activity change, negative = inhibition” value read?
Answer: inactive: 39.1%

Question: For `COc1ccc(OC)c(NC(=O)c2cc(S(=O)(=O)N(C)C)ccc2N2CCCC2)c1`, which Potency is on record?
Answer: active: 13.1 µM

Question: For `CCOc1ccc(-c2nnc(-c3cccnc3)o2)cc1OCC`, which Potency is on record?
Answer: inconclusive [inhibitor, single point]

Question: Which Potency does the source give for `CCN(CC(=O)NCc1ccc(F)cc1)CC(=O)Nc1ccccc1-c1ccccc1` here?
Answer: inconclusive [inhibitor, partial curve]

Question: With `CC1=CC(C)[C@@H]2COC(c3ccc(O)cc3)[C@H]1C2C` (stereo partly drawn) as the molecule, how does the Potency read?
Answer: inconclusive [inhibitor, single point]

Question: For `O=C(NCc1ccc2c(c1)OCO2)c1ccc2c(c1)N(Cc1c(F)cccc1Cl)C(=O)CS2`, which Potency is on record?
Answer: active: 11.7 µM

Question: With `Cc1ccc(NC(=O)CSc2nnc(-c3ccoc3C)n2CCCN(C)C)cc1Cl` as the molecule, how does the “activity change, negative = inhibition” value read?
Answer: inactive: -27%

Question: With `CCN1CCN(Cc2ccc(NC(=O)c3cc(NC(=O)c4cncc(-c5ccc(C#N)cc5)c4)cc(OC)c3)cc2C(F)(F)F)CC1` as the molecule, how does the Potency read?
Answer: active: 0.465 µM

Question: With `CCSc1nnc(NC(=O)CSc2nnc(Cc3cccn3C)n2CCc2ccccc2)s1` as the molecule, how does the Potency read?
Answer: inconclusive [inhibitor, single point]

Question: For `CCC1CCCCN1CCCNC(=O)CS(=O)(=O)Cc1nc(-c2cccc(OC)c2)oc1C` (stereo not drawn), which Potency is on record?
Answer: inconclusive [inhibitor, partial curve, poor fit]

Question: For `Fc1ccc(NC2=NCCS2)cc1Cl`, which “activity change, negative = inhibition” value is on record?
Answer: inactive: 11.2%

Question: For `CN(C(=S)Nc1ccc(SC(F)F)cc1)c1ccc(O)cc1`, which “activity change, negative = inhibition” value is on record?
Answer: inactive: 51.7%

Question: With `O=C(COC(=O)c1cc([N+](=O)[O-])ccc1N1CCOCC1)Nc1cccc(F)c1` as the molecule, how does the “activity change, negative = inhibition” value read?
Answer: inactive: 23.7%

Question: For `CC(C)C(=O)N1CCN(c2ccccc2NC(=S)NC(=O)c2cccs2)CC1`, which Potency is on record?
Answer: inconclusive [inhibitor, single point]

Question: With `COC(=O)CC1=C(C(=O)OC)[C@@H](c2ccccc2[N+](=O)[O-])C(C#N)=C(N)O1` as the molecule, how does the “activity change, negative = inhibition” value read?
Answer: inactive: -2.12%

Question: For `O=C(Nc1cccc(Cl)c1)N1CCN(C/C=C/c2ccccc2)CC1`, which Potency is on record?
Answer: inconclusive [inhibitor, partial curve]

Question: With `COc1ccc(-c2nc3c(c(SCC(=O)Nc4cccc(O)c4)n2)Cc2c(CO)cnc(C)c2O3)cc1` as the molecule, how does the Potency read?
Answer: active: 9.28 µM

Question: With `CC(Sc1nnc(C(F)(F)F)n1C)C(=O)Nc1ccc(S(N)(=O)=O)cc1` (stereo not drawn) as the molecule, how does the “activity change, negative = inhibition” value read?
Answer: inactive: 0.438%

Question: Which Potency does the source give for `COc1cc(OC)c(C(=O)O/N=C(\N)c2ccccc2)cc1OC` here?
Answer: inconclusive [inhibitor, single point]

Question: Which “activity change, negative = inhibition” value does the source give for `N#CCCN(Cc1cccnc1)C(=O)c1sc2cc(F)ccc2c1Cl` here?
Answer: inactive: -6.56%

Question: With `CC(Cc1cccs1)NCc1ccccc1` (stereo not drawn) as the molecule, how does the “activity change, negative = inhibition” value read?
Answer: inactive: 367%

Question: Which Potency does the source give for `Cc1cc(-c2ccccc2)n(-c2cc(N/N=C/c3ccccc3O)ncn2)n1` here?
Answer: active: 13.1 µM

Question: Which Potency does the source give for `Cc1ccccc1NC(=O)CSc1nnnn1C` here?
Answer: inconclusive [inhibitor, partial curve, poor fit]

Question: With `O=C(Cn1c2ccc(F)cc2c2nc3n(c(=O)c21)CCS3)Nc1ccc(Cl)cc1F` as the molecule, how does the Potency read?
Answer: inconclusive [inhibitor, single point]
